Laboratory results: PubChem BioAssay AID743262 (National Center for Advancing Translational Sciences (NCATS), 2014)
The campaign covered roughly 1,300 compounds. About 25 (2%) were called active. Another 9% or so got no clear call; they are omitted. The call rests on the fitted dose curve; in most records, active means well fitted activation curve with a large enough effect; inconclusive means small, poorly fitted or top-dose-only effect; inactive means flat fitted curve, though single readings scatter. This is one part of the list.

target: Glucagon-like peptide 1 receptor (Homo sapiens) (UniProt P43220); assay: qHTS of GLP-1 Receptor Agonists: Hit Validation; conditions: HEK293 GLP-1R, cAMP-response luciferase, 4-6 h; series mostly up to 46.1 µM; activation: at the top concentration; further: % of control where 0% means no effect
Method in brief: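 HEK293 cells stably co-expressing a cAMP-responsive luciferase reporter and GLP-1R (hypersensitive receptor for weak agonists; wild-type line for confirmation) were plated 12 h at 37 °C, exposed to compound 4-6 h, then read by luminescence after 12 min detection reagent.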

Sequence of UniProt P43220 (P43220 whole entry, looked up): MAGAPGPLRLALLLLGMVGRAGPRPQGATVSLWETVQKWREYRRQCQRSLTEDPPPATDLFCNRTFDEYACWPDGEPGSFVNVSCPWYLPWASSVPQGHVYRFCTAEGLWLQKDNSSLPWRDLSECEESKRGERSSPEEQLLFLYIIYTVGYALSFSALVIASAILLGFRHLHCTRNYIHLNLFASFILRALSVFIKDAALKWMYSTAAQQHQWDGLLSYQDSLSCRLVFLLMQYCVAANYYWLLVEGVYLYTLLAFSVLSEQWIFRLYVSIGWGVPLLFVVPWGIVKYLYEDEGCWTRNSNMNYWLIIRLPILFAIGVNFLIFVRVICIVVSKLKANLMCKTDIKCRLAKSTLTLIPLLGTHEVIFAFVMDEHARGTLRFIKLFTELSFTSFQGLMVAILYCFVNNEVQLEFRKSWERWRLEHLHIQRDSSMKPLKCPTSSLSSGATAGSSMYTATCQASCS

activation, inactive:
N#Cc1ccccc1CSc1nc2ccsc2c(=O)n1Cc1ccccn1 3.3%, COc1cc(C(=O)N(Cc2cccnc2)Cc2cc3cc4c(cc3[nH]c2=O)OCCO4)cc(OC)c1OC 1.89%, COc1ccc(C(C)=O)cc1COc1ccc([N+](=O)[O-])c(C)c1 2.01%, O=C(Nc1cccnc1)c1cc2nc(C3CC3)cc(C(F)(F)F)n2n1 2.01%, CCN(CC)C(=O)c1ccc(COc2ccccc2Cl)cc1 -0.201%, COc1ccc(COC(=O)c2cccc(S(=O)(=O)N3CCN(C(C)=O)CC3)c2)cc1F -0.378%, O=C(NCc1ccccn1)Nc1ccc2c(c1)OCO2 -0.911%, N/C(=N\OC(=O)c1ccc2ccccc2c1)c1ccccc1Cl 11.2%, COC(=O)c1sc(NC(=O)CSc2nc3cccnc3n2C)nc1C -1.18%, Cc1ccc(C)c(S(=O)(=O)Nc2cc3c4c(c2)CCC(=O)N4CCC3)c1 4.82%, O=C(NCC1CCCN(Cc2nccs2)C1)c1cccc2ccccc12 (stereo not given) -0.55%, COc1cccc(Nc2nc(N)nc(C(F)(F)F)n2)c1 5.74%, COC(=O)c1c(NC(=O)C2=COCCO2)sc(C)c1C 1.3%, CCN(CC(=O)Nc1ccc(OC)c(OC)c1)CC(=O)Nc1ccccc1C(F)(F)F 1.95%, O=C(NCc1ccccc1Cl)c1ccccc1Oc1ccccc1 4.67%, COc1ccc(-n2nc(C(=O)NCC(=O)Nc3cc(OC)c(OC)c(OC)c3)c3ccccc3c2=O)cc1 0.214%, CCN(CC(O)c1cccc(O)c1)C(=O)C12CC3CC(CC(C3)C1)C2 (stereo not given) 26%, Cc1ccc(NC(=S)NCCc2ccccc2)nc1 3.32%, Cc1ccc(C)c(COC(=O)c2cc([N+](=O)[O-])ccc2N2CCOCC2)c1 14.6%, CCCCCCCOc1ccc(C2CC(=O)N(C)C2=O)cc1 (stereo not given) 3.7%, CCOC(=O)c1c(C)c(C(=O)Nc2cc(OC)ccc2OC)c(C)n1CC 18%, N#Cc1c(NCCCO)nc(-c2ccccc2)c2c1CCCC2 10.7%, Clc1cccc(-c2nc3ccc(Cl)cn3c2Cc2ccccc2)c1 3.18%, CN(C)CCc1c[nH]c2ccc(CS(=O)(=O)N3CCCC3)cc12 -0.692%, COc1ccc(/C=N/NC(=O)c2cc3c(OC)ccc(OC)c3[nH]2)cc1O 23%, COc1cc(SC)ccc1C(=O)OCc1nc2ccsc2c(=O)[nH]1 3.67%, COc1cccc(N=c2oc3cc(O)ccc3cc2C(=O)NCC2CCCO2)c1 (stereo not given) 21.9%, COc1ccc(Nc2nnc(SC(C(=O)Nc3cc(C)ccc3C)c3ccccc3)s2)cc1 (stereo not given) -0.797%, Nc1ccc(Br)cc1C(=O)O -0.955%, OC(c1ccccc1)c1nc(-c2ccccc2)cs1 (stereo not given) -0.205%, Cc1cc(C)n(CCCNCC(O)c2ccccc2)n1 (stereo not given) 23.8%, CCC1C(=O)CC(c2ccco2)NC1c1ccco1 (stereo not given) -0.709%, Cc1ccccc1OCCCCn1cnc2ccccc21 -0.482%, COc1ccc(-c2cc(=O)c3c(OC)c(OC)c(OC)c(OC)c3o2)cc1OC 9.93%, CCCn1c(SCC(=O)N2CCCc3ccccc32)nc2c1c(=O)n(C)c(=O)n2C 7.7%, O=C(CCN1C(=O)c2ccccc2C1=O)N(CCO)Cc1ccccc1 -1.28%, CCOC(=O)c1c(NC(=O)Cc2ccccc2)sc2c1CCN(CC)C2 1.77%, Cc1cccc(Nc2nc(N)c([N+](=O)[O-])c(NCc3ccccc3)n2)c1 17.5%, Cc1nc2c(c3c1[nH]c1ccccc13)C(=O)CC(C)(C)C2 3.4%, CCOc1ccc(Cc2nccc3cc(OCC)c(OCC)cc23)cc1OCC 27.8% [at 19.8 µM], Nc1nc(Nc2ccccc2)nc(NCc2ccccc2)c1[N+](=O)[O-] 18%, CCOC(=O)c1cc2c(=O)n3ccccc3nc2n(C(C)C)c1=NC(=O)c1ccncc1 27.4%, CN(CC(=O)Nc1ccc(S(=O)(=O)N2CCCC2)cc1)Cc1ccc(Cl)cc1Cl 3.21%, CC1CCCC(C)N1C(=O)c1ccc2c(c1)S(=O)(=O)c1ccccc1C2=O (stereo not given) 8.97%, O=C(NCc1ccco1)c1ccc(Cn2c(=O)c3sccc3n(Cc3cccc(F)c3)c2=O)cc1 1.42%, Cc1ccc(Nc2c(-c3ccc(N4CCOCC4)cc3)nc3cnccn23)cc1 10.3%, O=C(O)c1cccnc1 1.83%, O=C(O)c1nn(CCOc2c(Cl)cccc2Cl)c(=O)c2ccccc12 11.1%, CCOc1ncccc1C(=O)Nc1ccc(S(=O)(=O)Nc2nc(C)cc(C)n2)cc1 6.22%, Cc1ccc(-n2ncc3c2ncn2nc(-c4ccco4)nc32)c(C)c1 0.187%, CCN(Cc1cnn(C)c1)C(=O)CC1C(=O)NCCN1Cc1cccc(OC)c1OC (stereo not given) -0.803%, Cc1ccc(CNc2ncnc(N)c2[N+](=O)[O-])cc1 1.93%, Cc1coc2c1c(C)cc1oc(=O)c(CC(=O)NCCCCCC(=O)O)c(C)c12 -0.676%, CCN(CC)S(=O)(=O)c1ccc2oc(C(=O)N3CCOCC3)c(C)c2c1 -0.33%, O=[N+]([O-])c1ccc2nonc2c1Nc1cccc(F)c1 12%
